# From PubChem BioAssay AID588579 (National Center for Advancing Translational Sciences (NCATS), 2011)
# The whole screen tested about 400,000 compounds, of which about 2,200 (0.55%) were called active. Inconclusive means that the source gave no clear call. Such entries were picked first, then a sample of the others. The call rests on the fitted dose curve; in most records, active means well fitted inhibition curve with a large enough effect; inconclusive means small, poorly fitted or top-dose-only effect, or another doubt; inactive means no such curve, though single readings can be large or run the other way. Potencies of inconclusive entries are doubtful fits and often do not repeat.
# Molecular target: DNA polymerase kappa (Homo sapiens) (UniProt Q9UBT6)
# Sequence of UniProt Q9UBT6 (Q9UBT6 whole entry, looked up): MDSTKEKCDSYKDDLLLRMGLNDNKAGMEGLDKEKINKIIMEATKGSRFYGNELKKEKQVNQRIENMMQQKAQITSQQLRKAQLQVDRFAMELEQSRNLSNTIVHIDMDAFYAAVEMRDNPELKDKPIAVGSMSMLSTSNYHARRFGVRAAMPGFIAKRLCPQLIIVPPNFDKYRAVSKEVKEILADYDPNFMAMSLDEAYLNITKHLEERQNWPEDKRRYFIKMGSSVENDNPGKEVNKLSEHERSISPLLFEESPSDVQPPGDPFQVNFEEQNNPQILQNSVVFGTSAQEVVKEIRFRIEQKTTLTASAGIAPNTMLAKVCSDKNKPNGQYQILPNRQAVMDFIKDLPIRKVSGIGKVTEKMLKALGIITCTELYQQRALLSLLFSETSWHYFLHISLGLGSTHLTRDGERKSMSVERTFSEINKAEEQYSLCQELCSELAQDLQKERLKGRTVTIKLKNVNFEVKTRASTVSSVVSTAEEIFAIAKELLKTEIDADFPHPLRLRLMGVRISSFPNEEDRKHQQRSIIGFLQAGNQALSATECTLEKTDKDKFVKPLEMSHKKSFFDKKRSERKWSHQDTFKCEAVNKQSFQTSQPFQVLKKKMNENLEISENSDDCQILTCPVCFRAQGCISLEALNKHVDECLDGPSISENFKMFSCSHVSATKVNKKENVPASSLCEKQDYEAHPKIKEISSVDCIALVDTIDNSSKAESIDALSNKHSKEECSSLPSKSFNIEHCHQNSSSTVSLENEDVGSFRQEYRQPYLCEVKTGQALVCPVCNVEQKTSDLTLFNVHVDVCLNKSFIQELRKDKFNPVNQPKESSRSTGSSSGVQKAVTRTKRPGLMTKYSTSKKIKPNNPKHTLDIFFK
# Assay: qHTS for Inhibitors of Polymerase Kappa
# Conditions: purified Pol kappa, fluorescent DNA synthesis assay, 10 min; series mostly up to 107 µM
# How it was run: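 10 nM Pol kappa preincubated 15 min at room temperature with compounds, then reaction started with substrate at 50 nM final. Fluorescence read kinetically at 0 and 10 min; buffer-only wells served as negative control.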
# Potency means the concentration at half of the fitted maximal effect; tags describe the fitted curve by direction and shape.
row,Structure (SMILES),Potency
1,Cc1ccc([N+](=O)[O-])cc1Nc1nc(N2CCOCC2)nc(N2CCOCC2)n1,"inconclusive: 100 µM [inhibitor, single point]"
2,Cc1ccc(O)c(NC(=O)c2noc3c2CCCC3)c1,inactive
3,COc1ccc(C(=O)Oc2coc(CSc3nnc(NC(=O)c4cccs4)s3)cc2=O)cc1,"inconclusive: 89.1 µM [inhibitor, single point]"
4,COc1ccc(OC(C)C(=O)Nc2cccc(OC)c2)cc1 (stereo not given),inactive
5,CCOC(=O)c1cc2c(=O)n3cccc(C)c3nc2n(Cc2ccco2)c1=NC(=O)c1cccnc1,"inconclusive: 89.1 µM [inhibitor, single point]"
6,C=C1C(=O)O[C@@H]2[C@H]3O[C@]3(C)CCC=C(C)CC[C@@H]12,"inconclusive: 1 µM [inhibitor, partial curve, poor fit]"
7,COc1ccc(C(=O)Nc2nnc(S(=O)(=O)N3CCCc4ccccc43)s2)cc1,inactive
8,CCC(C)n1ncn(-c2ccc(N3CCN(c4ccc(OCC5COC(Cn6cncn6)(c6ccc(Cl)cc6Cl)O5)cc4)CC3)cc2)c1=O (stereo not given),"inconclusive: 44.7 µM [inhibitor, partial curve, poor fit]"
9,Nc1ccc(/C=C/c2ccc(N)cc2S(=O)(=O)O)c(S(=O)(=O)O)c1,active: 3.16 µM
10,O=C(O)CCC(=O)N1N=C(c2ccco2)CC1c1ccco1 (stereo not given),"inconclusive: 89.1 µM [inhibitor, single point]"
11,CCNc1ncc2nc(-c3cc(F)cc(F)c3)c(=O)n(-c3ccc(OC)cc3)c2n1,inactive
12,CC(=O)c1c(C)[nH]c(C(=O)OCc2cc(=O)n3cc(Br)ccc3n2)c1C,"inconclusive: 89.1 µM [inhibitor, partial curve, poor fit]"
13,CCOC(=O)c1c(NC(=O)CSc2cn(CCNC(=O)c3ccc(OC)c(OC)c3)c3ccccc23)sc2c1CCCC2,inactive
14,CC[C@@H](C)[C@H]1O[C@]2(CC[C@@H]1C)C[C@@H]1C[C@H](C/C=C(/C)[C@H](O[C@@H]3C[C@H](OC)[C@H](O[C@@H]4C[C@H](OC)[C@@H](O)[C@H](C)O4)[C@H](C)O3)[C@@H](C)/C=C\C=C3CO[C@@H]4[C@H](O)C(C)=C[C@@H](C(=O)O1)[C@]34O)O2 (tested in a mixture with another compound),"inconclusive: 14.1 µM [inhibitor, partial curve, poor fit]"
15,Cc1ccc2c(c1)C(O)(CC(=O)c1ccc(C)s1)C(=O)N2 (stereo not given),inactive
16,Cc1onc(C(=O)Nc2ccc(OC(F)(F)F)cc2)c1[N+](=O)[O-],"inconclusive: 89.1 µM [inhibitor, single point]"
17,CC(=C\C(=O)O)/C(=C/c1ccco1)C(=O)O,"inconclusive: 89.1 µM [inhibitor, single point]"
18,N#CC1=C(N)Oc2n[nH]c(-c3cccnc3)c2C1c1ccc([N+](=O)[O-])o1 (stereo not given),"inconclusive: 89.1 µM [inhibitor, single point]"
19,Nc1ccccc1/C=C/c1ccnc2ccccc12,"inconclusive: 100 µM [inhibitor, single point]"
20,C#CCOCCOCCOCCNc1nc(N2CCN(C(=O)CCCCCCCCCCNC(=O)[C@H](CCCCN)n3cc(C)nn3)CC2)nc(N2CCN(C(=O)CCCCCCCCCCNC(=O)[C@H](CO)n3cc(CCCSC)nn3)CC2)n1,"inconclusive: 89.1 µM [inhibitor, single point]"
21,Cc1ccc(CNC(=O)C2CC(=O)OC23CCCC3)c(C)c1 (stereo not given),"inconclusive: 89.1 µM [inhibitor, single point]"
22,CCc1ccccc1N1CC(C(=O)Nc2cc(S(=O)(=O)N3CCCC3)ccc2Cl)CC1=O (stereo not given),"inconclusive: 100 µM [inhibitor, single point]"

row,Structure (SMILES),Potency
1,COc1ccccc1CNC(=O)c1ccc(CS(=O)(=O)c2ccc(C)cc2)o1,"inconclusive: 79.4 µM [inhibitor, single point]"
2,CN(C)CCNC(=O)c1ccc(Cl)c2cc3ccccc3nc12,active: 50.1 µM
3,N#C/C(=C\c1ccc(-c2ccc(C(=O)O)cc2)o1)C(=O)Nc1ccccc1C(=O)O,active: 31.6 µM
4,COc1ccccc1NC(=O)c1cc(=O)c2ccc(C)c(C)c2o1,"inconclusive: 89.1 µM [inhibitor, single point]"
5,Cc1noc(NS(=O)(=O)c2ccc(NC(=O)CSc3nnc4c(n3)[nH]c3ccccc34)cc2)c1C,"inconclusive: 89.1 µM [inhibitor, single point]"
6,Cc1cc(C)c(NC(=O)CCS(=O)(=O)c2cc3c(cc2Cl)NC(=O)CO3)c(C)c1,inactive
7,CC(=O)c1cccc(NC(=O)c2nc(-c3ccccc3)n(-c3ccccc3)n2)c1,inactive
8,N#C/C(=C/c1ccc(O)c(O)c1)c1nc2ccccc2[nH]1,active: 10 µM
9,Cc1ccc2oc(C(=O)Nc3cccc(Cl)c3)cc(=O)c2c1,"inconclusive: 89.1 µM [inhibitor, single point]"
10,C[C@]12CCC3c4ccc(O)cc4CCC3C1CCC2OC(=O)CCC1CCCC1 (stereo not given in full),"inconclusive: 28.2 µM [inhibitor, partial curve, poor fit]"
11,COc1cccc(NC(=O)c2cc(-c3ccc(C)o3)nc3ccccc23)c1,"inconclusive: 89.1 µM [inhibitor, single point]"
12,Cc1oc(-c2ccccc2Cl)nc1CSc1nc2ncccc2[nH]1,inactive
13,N#C/C(=C\c1ccc(O)c(O)c1)C(=O)Nc1cccc2ncccc12,active: 3.98 µM
14,COc1cc(/C=C2\SC(=S)N(NS(=O)(=O)c3ccc(C)cc3)C2=O)ccc1O,"inconclusive: 56.2 µM [inhibitor, partial curve, poor fit]"
15,CCNC(=O)COC(=O)c1cc(-c2ccco2)nc2ccccc12,active: 35.5 µM
16,COc1ccc(-c2noc(COc3cc(C)ccc3C)n2)cc1OC,inactive
17,Cc1ccc(NC(=O)C2CC2)cc1S(=O)(=O)N1CCOCC1,"inconclusive: 44.7 µM [inhibitor, partial curve, poor fit]"
18,O=C(NNC(=O)C1CC=CCC1)c1ccccc1Br (stereo not given),"inconclusive: 89.1 µM [inhibitor, single point]"
19,CCOc1ccc(CCNS(=O)(=O)c2cn(C)cn2)cc1OCC,"inconclusive: 89.1 µM [inhibitor, single point]"
20,O=CN/C=C/c1cc(O)ccc1O,active: 44.7 µM
21,CS(=O)(=O)N1N=C(c2ccco2)CC1c1ccco1 (stereo not given),active: 79.4 µM
22,Cc1ccc2nc(Cl)c(C3CC(c4ccco4)=NN3C(=O)CCCC(=O)O)cc2c1 (stereo not given),active: 35.5 µM

row,Structure (SMILES),Potency
1,Cc1cc(C)nc(/N=C(\NC(=O)C(C)(C)C)Nc2ccc(F)cc2)n1,inactive
2,Cn1c2ccccc2n2c(=O)c(Cl)c(-c3ccccc3)c(C#N)c12,inactive
3,c1coc(C2=NC(c3ccco3)C(c3ccco3)N2)c1 (stereo not given),"inconclusive: 89.1 µM [inhibitor, partial curve, poor fit]"
4,CN(Cc1ccco1)C(=O)CCc1nc2sc3c(c2c(=O)[nH]1)CCCC3,"inconclusive: 89.1 µM [inhibitor, single point]"
5,C#Cc1ccc([C@@H]2C=C(C(=O)O)O[C@H](OCc3ccc(CO)cc3)C2)cc1,"inconclusive: 50.1 µM [inhibitor, partial curve, poor fit]"
6,CCc1ccc(C(=O)c2cn(CC(=O)Nc3ccc4c(c3)OCO4)c3ccc(OC)cc3c2=O)cc1,inactive
7,COc1ccc(NC(=O)COc2ccc(/C=C/c3cccc[n+]3C)cc2OC)cc1,"inconclusive: 89.1 µM [inhibitor, single point]"
8,O=C(N/N=C\C=C\c1ccc([N+](=O)[O-])o1)c1cccs1,active: 79.4 µM
9,CC(=C\c1ccco1)/C=C1/SC(=S)N(CC(=O)O)C1=O,"inconclusive: 79.4 µM [inhibitor, partial curve, poor fit]"
10,O=C(COc1ccccc1)NC(=S)Nc1cccc(NC(=O)c2ccccc2Cl)c1,inactive
11,COCCNC(=O)c1ccc(CSc2nc3ccncc3n2Cc2ccccc2)cc1,"inconclusive: 89.1 µM [inhibitor, single point]"
12,Cc1nnc(SCC2=C(C(=O)O)N3C(=O)C(NC(=O)Cn4nc(C(F)F)cc4C)C3SC2)s1 (stereo not given),"inconclusive: 89.1 µM [inhibitor, single point]"
13,CCOc1ccc(NC(=O)Cn2nc(-c3ccncc3)ccc2=O)cc1,inactive
14,O=C1/C(=C/c2ccco2)SC(=S)N1c1cccnc1,active: 8.91 µM
15,COC(=O)C1=C(SC)N(c2ccccc2)C(c2ccccc2)CC1=O (stereo not given),active: 89.1 µM
16,Cc1cccc([C@H]2[C@@H]3C=CC(C)C[C@@H]3C(=O)N2Cc2ccccc2)c1 (stereo not given in full),"inconclusive: 56.2 µM [inhibitor, partial curve, poor fit]"
17,COc1ccc(S(=O)(=O)N2CCCN(Cc3cccc(F)c3)CC2)cc1,inactive
18,COc1cccc2cc(-c3cc(=O)oc4cc(C)c(O)cc34)oc12,"inconclusive: 89.1 µM [inhibitor, single point]"
19,Cc1sc2ncn(CC(=O)N3CCC(C(N)=O)CC3)c(=O)c2c1S(=O)(=O)N1CC(C)CC(C)C1 (stereo not given),"inconclusive: 89.1 µM [inhibitor, partial curve, poor fit]"
20,Cc1ccc(NC(=O)CN2C(=O)S/C(=C\c3cccn3-c3cccc(C(=O)O)c3)C2=O)c(C)c1,"inconclusive: 0.708 µM [inhibitor, full curve, poor fit]"
21,O=C1C(SCCO)=C(SCCO)C(=O)c2ccccc21,"inconclusive: 100 µM [inhibitor, partial curve, poor fit]"
